The source of these data is the supplement of paper PMC11417369.

The list shows a part of the results.

In the test the test system is PF3D7_0420300 AP2 domain 1 (GST-tagged). The experiment in a line: gcPBM binding intensity (ln(normalized median fluorescence intensity)); higher = stronger DNA binding. The essentials:
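Binding intensity is defined as the maximum Masliner-normalised natural-log median intensity across replicate spots for either probe orientation. It was measured on an Agilent 4 × 180k array of primer-extended double-stranded 36-bp intergenic genomic probes and negative controls, to which GST-tagged P. falciparum DNA-binding domains made in E. coli were applied for 1 h in 1× PBS with 1% milk, 0.2 mg/ml BSA, 0.5% salmon testes DNA and 0.03% Triton X-100. Detection was by Alexa488 anti-GST antibody and scanning at 488 nm.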
On to “AATATAAATAATGTTAAACACACATACCGATATATA [CACACA_site8869]”, for which the “gcPBM binding intensity (ln)” value was determined as 9.66. Consider “ATTTATAGAGCTATATGTACATATATATATATTATT [XGTACX_site3704]”, for which the “gcPBM binding intensity (ln)” value is 9.27. For “AAAAGGTGGAAAAATGCATGCAGGCTATTCTATATA [TGCATGCA_site1034]”, the “gcPBM binding intensity (ln)” value is 9.28. In the case of “TTCCACCAATATATATGTACTTATAATATATATATA [XGTACX_site8700]”, the “gcPBM binding intensity (ln)” value amounted to 9.24.

“AATTACATATAATACTGTACGCTAATAAGAAAAAAA [XGTACX_site7413]”: the “gcPBM binding intensity (ln)” value was found to be 9.27. For the sequence “TAATTATGTATGAACTGTACAGGTTATTTTATTTTA [XGTACX_site5204]”, the “gcPBM binding intensity (ln)” value worked out at 9.14.

In the case of “TAAAATTTAAATTATACACACTTAAGTAACATCATC [CACACA_site4450]”, the “gcPBM binding intensity (ln)” value worked out at 9.45. Regarding “AAAAAATACCTCTATAGTACATATATATAATATTTA [XGTACX_site7222]”, the “gcPBM binding intensity (ln)” value amounted to 9.2.

As for “AAAAAAAATTTATTTGCATGCAAAAAAAAAAAAAAA [TGCATGCA_site67]”, the “gcPBM binding intensity (ln)” value was 8.84.

As for “ACAATATAGATTAAAAGTACAAATAGTAAATTATAT [XGTACX_site3165]”, the “gcPBM binding intensity (ln)” value is 9.52.

For the sequence “AAAACAATATACTGTAGTACTGATGATATATATATA [XGTACX_site7798]”, the “gcPBM binding intensity (ln)” value worked out at 9.33. With “ATAAAAAAAAATAGCACACATAAATATATTATATAT [CACACA_site767]”, the “gcPBM binding intensity (ln)” value worked out at 9.63. Consider “AATCATCTCATAAAAATTAATTAGTGTATGTCTTTT [TGCATGCA_negctrl_site416]”, for which the “gcPBM binding intensity (ln)” value turned out to be 9.23. Consider “CTACTTATAAATAGAACACACATAAGTGTATTTGTA [CACACA_site3759]”, for which the “gcPBM binding intensity (ln)” value was 9.23. For the sequence “ATTTAAATACAAAATTGTACTTTTCTATATTTAACA [XGTACX_site6146]”, the “gcPBM binding intensity (ln)” value is 9.14. For the sequence “AAATTTTAAATAGTATGTACGTATGAAATATATATG [XGTACX_site7511]”, the “gcPBM binding intensity (ln)” value was 9.36.

Take “ACCCATTTAACAAAATGTACATTATTATAATTACTT [XGTACX_site7105]”: the “gcPBM binding intensity (ln)” value worked out at 9.35. Turning to “AAAATTTTACAGAAGGTGCGTATATTTTCCTGCTTA [GTGCAC_site9643]”, the “gcPBM binding intensity (ln)” value amounted to 9.26. On to “TTTGGAAAAAAATTATTTAAACGATATGAATTGATG [XGTACX_negctrl_site506]”, for which the “gcPBM binding intensity (ln)” value is 8.89. With “TACAATATTTTGAGACGTACATATATACATTTACAT [XGTACX_site5880]”, the “gcPBM binding intensity (ln)” value turned out to be 9.24. To “AAATTAAAATAAAAATGTACATATAAAGACACAACT [XGTACX_site3132]” belongs 9.86; to “CTTACCAAAAGACACACACACACAAGATATATAAAT [CACACA_site6964]”, 10.2. “TGAACTTACTTGGACATACACACATATATATATATA [CACACA_site2977]”: the “gcPBM binding intensity (ln)” value stood at 9.65.

On to “TGTAAGTCGTTATAAGCACACACATAAATAAAAATA [CACACA_site8448]”, for which the “gcPBM binding intensity (ln)” value turned out to be 9.59. For the sequence “TATATATATATACCAACACACATACAGATATATATA [CACACA_site5060]”, the “gcPBM binding intensity (ln)” value is 9.7. For the sequence “TTTATATACAAAAATGCACACGAAAAGTAATATATA [CACACA_site9387]”, the “gcPBM binding intensity (ln)” value was 9.56. For “AAGCCCATTATTAAATGTACAAAATTTTATAAACTA [XGTACX_site7800]” the value was 9.06; for “CAGTGCCAAATTAGCACACACATATATACATGAATT [CACACA_site2814]”, 9.5; for “GTATATATGTATATATGTACATATATATAATATATT [XGTACX_site56]”, 9.16.

In the case of “TAAAACATATATACAAGTACACAAAGGATATATATA [XGTACX_site3710]”, the “gcPBM binding intensity (ln)” value was 9.55. With “TATAGGTATTTATATACACACATATTCTTTTTACAC [CACACA_site6686]”, the “gcPBM binding intensity (ln)” value was determined as 9.63. Turning to “TTTTGTTATGGTTTGATGCACTTATATATAAATATT [GTGCAC_site9705]”, the “gcPBM binding intensity (ln)” value came out at 9.6. As to “CACAGTGATATAAAAACACACATGAATTATAATTTC [CACACA_site1667]”, the “gcPBM binding intensity (ln)” value was 9.43. As to ATGTAGATAAAACGTGTGCACATGTTTTTTGTTATT, the “gcPBM binding intensity (ln)” value amounted to 9.86. For the sequence “ATATATATATATATATGTACTTATTACCAATGTTAG [XGTACX_site1896]”, the “gcPBM binding intensity (ln)” value is 9.23. Take “AATATATGATAATTTTTTTTTTTTTTTTTTAAATAT [CACACA_negctrl_site452]”: the “gcPBM binding intensity (ln)” value worked out at 8.89. For “AAAAAATGTTAAAAAAGTACTTTCTTTATTTAATAA [XGTACX_site2908]” the value was 8.96; for “AACAATTGTTAAAGGTGTACCATATGTATATAAGAA [XGTACX_site5723]”, 9.39; for “AGACGTAATAATTGTTGTACATAAAAAAATAAGAAA [XGTACX_site7594]”, 9.23.

For the sequence “ATGATATTATAAAAAAGTACATATGTATATAATTAT [XGTACX_site7652]”, the “gcPBM binding intensity (ln)” value was 9.38. To “TGTGTTAGCAAAAAAGTGCACAGGGAAAAAAAAATA [GTGCAC_site9397]” belongs 9.25.

Consider “CATTTAGTTCATACTATGCACACTACGTATATTTTT [CACACA_site2694]”, for which the “gcPBM binding intensity (ln)” value was determined as 9.63.

As to “TGTATAAAAAACTAATGTACAAATGACAAGATATCT [XGTACX_site4600]”, the “gcPBM binding intensity (ln)” value was found to be 9.34. Consider “AATGCACAGCTCTTAGGCAAAAGTGGGTATTTACAC [GTGCAC_negctrl_site579]”, for which the “gcPBM binding intensity (ln)” value amounted to 9.17.
